The source of these data is publication PMC4336329 (PLoS ONE, 2015).

Hit rate of the full screen: of about 310,000 compounds, about 2,200 (0.71%) showed an effect of 50% or more. Effects have a minus sign here. This is one part of the list.

The target in the experiment is human ether-à-go-go-related gene (hERG) potassium channel (human, UniProt Q12809). Put plainly: primary screen, population patch clamp on CHO cells stably expressing hERG.
human ether-à-go-go-related gene (hERG) potassium channel, sequence (Q12809 whole entry, looked up): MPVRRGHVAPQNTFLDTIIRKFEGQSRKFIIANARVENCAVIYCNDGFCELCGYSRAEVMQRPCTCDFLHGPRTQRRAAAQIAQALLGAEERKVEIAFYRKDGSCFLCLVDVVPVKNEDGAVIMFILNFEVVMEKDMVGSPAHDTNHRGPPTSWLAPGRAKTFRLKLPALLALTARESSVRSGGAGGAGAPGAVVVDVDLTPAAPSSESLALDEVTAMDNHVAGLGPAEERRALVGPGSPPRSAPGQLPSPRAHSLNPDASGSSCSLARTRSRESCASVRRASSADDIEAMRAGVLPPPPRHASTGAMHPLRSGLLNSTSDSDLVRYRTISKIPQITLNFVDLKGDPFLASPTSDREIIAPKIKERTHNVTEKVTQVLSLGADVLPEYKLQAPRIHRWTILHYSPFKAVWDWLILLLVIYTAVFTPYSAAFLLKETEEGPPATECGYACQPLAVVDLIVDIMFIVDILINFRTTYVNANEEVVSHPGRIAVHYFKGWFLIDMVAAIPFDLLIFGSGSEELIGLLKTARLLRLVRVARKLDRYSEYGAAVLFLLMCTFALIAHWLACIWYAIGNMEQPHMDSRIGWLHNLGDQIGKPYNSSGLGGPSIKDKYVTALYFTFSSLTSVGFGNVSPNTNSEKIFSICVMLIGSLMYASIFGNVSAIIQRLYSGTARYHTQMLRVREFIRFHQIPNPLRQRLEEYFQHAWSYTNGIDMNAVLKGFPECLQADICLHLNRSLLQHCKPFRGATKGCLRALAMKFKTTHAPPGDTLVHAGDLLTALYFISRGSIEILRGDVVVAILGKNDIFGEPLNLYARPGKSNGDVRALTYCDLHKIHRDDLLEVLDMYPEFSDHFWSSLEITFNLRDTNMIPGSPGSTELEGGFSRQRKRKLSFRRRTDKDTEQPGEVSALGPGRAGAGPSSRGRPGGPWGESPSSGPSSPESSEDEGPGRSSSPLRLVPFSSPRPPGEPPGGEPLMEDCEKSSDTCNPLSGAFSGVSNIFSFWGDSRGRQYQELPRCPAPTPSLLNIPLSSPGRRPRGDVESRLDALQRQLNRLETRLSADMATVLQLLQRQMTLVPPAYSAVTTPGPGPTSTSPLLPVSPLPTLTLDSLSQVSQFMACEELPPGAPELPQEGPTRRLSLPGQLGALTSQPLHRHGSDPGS
As to `Cc1ccc(O)c(NC(=O)c2ccco2)c1`, the “hERG current change (%, negative = inhibition) at 1uM” value stood at 5.55%.
In the case of `O=C(c1ccc2snnc2c1)N1CCSCC1`, the “hERG current change (%, negative = inhibition) at 1uM” value is 10.8%.
`CCOC1(/N=C(\C)NS(=O)(=O)c2ccc(Cl)cc2)C(C)=CC(=O)C=C1C`: the “hERG current change (%, negative = inhibition) at 1uM” value came out at 15.2%.
As for `Cc1csc2sc(-c3ccnc(SCC(=O)NCc4ccccc4)n3)c(C)c12`, the “hERG current change (%, negative = inhibition) at 1uM” value is listed as 14.2%.
On to `Cc1cc(SCC(=O)N2CCN(C(=O)c3ccco3)CC2)c(C)cc1Br`, for which the “hERG current change (%, negative = inhibition) at 1uM” value was -5.27%.
As for `COc1cc(C2CC(c3ccccc3)=NN2c2ccccc2)ccc1OCC(=O)O` (stereo not shown), the figure is 15%; as for `CCc1ccc(NS(=O)(=O)c2ccc3[nH]cc(C(=O)NCC4CCCO4)c(=O)c3c2)cc1` (stereo not shown), 9.38%; as for `O=C(Nc1ccc(S(=O)(=O)N2CCCc3ccccc32)cc1)C1CCCO1` (stereo not shown), -21%.
Consider `COc1ccc(OC)c2nc(-c3ccncc3)ccc12`, for which the “hERG current change (%, negative = inhibition) at 1uM” value came out at 11.8%.
Regarding `CCN(CC)S(=O)(=O)c1cc(NC(=O)C(C)OC(=O)c2[nH]c(C)c(C(C)=O)c2C)ccc1C` (stereo not shown), the “hERG current change (%, negative = inhibition) at 1uM” value is listed as 15.8%.
The same measure for `Cc1cccc(C)c1NC(=O)CNc1ncnc2sc(C)c(C)c12`: 18.6%; for `Cc1ccc(C(=O)N/C(=C\c2ccco2)C(=O)NCCN2CCCCC2)cc1C`: -33.1%; for `COC(=O)c1cc(C(=O)CSc2nc(C)cc(C)n2)ccc1O`: 13.2%.
With `COc1ccc(C2/C=C\CN(C(=O)c3ccc(C)cc3)[C@H](Cc3ccccc3)C(=O)N2Cc2ccc(F)cc2)cc1` (stereo partly shown), the “hERG current change (%, negative = inhibition) at 1uM” value is 11.8%.
The same measure for `Cc1ncn(-c2ccc(C(=O)Oc3ccccc3)cn2)n1`: 9.5%; for `c1ccc(-c2noc(CN3CCN(c4ccccc4)CC3)n2)cc1`: 7.76%.
The same measure for `CN(C)S(=O)(=O)N(CC(=O)N(Cc1ccccc1)Cc1ccccc1)c1ccccc1`: 0.942%.
With `CCOc1ccc(-n2ccnc(SCC(=O)NCCc3ccccc3)c2=O)cc1`, the “hERG current change (%, negative = inhibition) at 1uM” value is 14.9%.
As for `O=S(=O)(NCC(c1ccc2c(c1)OCO2)N1CCOCC1)c1ccc(Cl)cc1` (stereo not shown), the figure is 3.93%; as for `COCc1nnc(NC(=O)c2cccc(NC(=O)C(C)C)c2)s1`, 9.84%.
As for `COc1cc(/C=C/CO)ccc1O[C@@H]1O[C@H](CO)[C@@H](O)[C@H](O)[C@H]1O`, the figure is 16%.
In the case of `O=c1[nH]cnc2[nH]ncc12`, the “hERG current change (%, negative = inhibition) at 1uM” value stood at 18.1%.
As to `CC1Cc2nc(SCC(=O)NCCc3ccccc3)n(C)c(=O)c2S1` (stereo not shown), the “hERG current change (%, negative = inhibition) at 1uM” value is given as -5.45%.
As for `CCCOP(=O)(c1ccc(N(C)C)cc1)C(Nc1ccccc1)c1ccc(N(C)C)cc1` (stereo not shown), the figure is 9.27%; as for `COc1ccccc1C(C)NCC(=O)NCC(=O)Nc1ccc(F)c(F)c1F` (stereo not shown), 14.7%.
The same measure for `COc1ccc(NC(=S)Nc2cc(-c3ccccc3)[nH]n2)cc1Cl`: 10.4%; for `COC(=O)c1cn(CCOc2ccc(C)cc2)c2ccccc12`: 8.89%; for `O=C(CSc1nnc(CNC(=O)c2ccccc2F)o1)NCC1CCCO1` (stereo not shown): 9.87%.
The same measure for `NC(=O)c1ccc(NC(=O)CSC2=Nc3ccccc3C3CC=NN23)cc1` (stereo not shown): 9.56%; for `CCOc1ccc(-c2c(C#N)c(N)nc3c2c(=O)n(C)c(=O)n3C)cc1OC`: 18.9%; for `C#CCOCCOCCOCCNc1nc(N2CCOCC2)nc(N2CCN(C(=O)CCCCCCCCCCNC(=O)[C@H]([C@@H](C)CC)n3cc(CCCCN=C(N)N)nn3)CC2)n1`: 5.4%.
As for `CCOC(=O)c1c(-c2cccs2)csc1NC(=O)COC(=O)c1c(C)noc1C`, the “hERG current change (%, negative = inhibition) at 1uM” value is 1.72%.
As for `NC(=O)NC(=O)COC(=O)c1ccc(Cl)c(S(=O)(=O)N(Cc2ccccc2)c2ccc(Cl)cc2)c1`, the figure is 5.92%; as for `CC1=Nn2c(nnc2-c2ccccc2)SC1`, 6.74%.
As for `Cc1oncc1C(=O)NC(C)C`, the figure is 2.68%; as for `NS(=O)(=O)c1ccc(CCNS(=O)(=O)c2ccc3c(c2)NC(=O)CO3)cc1`, 12.8%; as for `O=c1cc[nH]c2c1ccc1cccnc12`, 9.46%.
The same measure for `O=C(Nc1ccc(S(=O)(=O)Nc2ncccn2)cc1)c1ccccc1`: 13.4%; for `COc1ccc2nc(SCC(=O)O)nc(C)c2c1`: 7.04%; for `Cc1csc2nc(CNC(=O)C3CC=CCC3C(=O)O)cn12` (stereo not shown): 15.2%.
`COc1ccc(C(C)NC(=O)CC23CC4CC(CC(C4)C2)C3)cc1` (stereo not shown): the “hERG current change (%, negative = inhibition) at 1uM” value was 5.09%.
Regarding `O=C1NC2(CCCCC2)CO1`, the “hERG current change (%, negative = inhibition) at 1uM” value is on record as 14.6%.
As for `CCCCn1c(=NC(=O)c2cccnc2)c(C#N)cc2c(=O)n3cccc(C)c3nc21`, the figure is 8.7%.
